The chains are these.
B1: LINE1-full (parent)
chain: UACGUAGGUGGUUUUCCCCUGAUAGUGCUAAGGGGGCCUGGAAGUUUGGACUGGGCAGAGCUCAACACAGCGUGGCAAAGUGGCUGUGGCUAGACUGCCUCUCUGGAUUCCUCGUCACUCAGCAGGGCAUCUCUGAGAGAAAUGCC

The source gives no read counts; variants with many changes may rest on few reads.

The data set covers variants of B1. Kind of data set: self-cleavage, relative activity (ratio to wild type); higher = more cleavage; in vitro, sequencing; the parent is a self-cleaving ribozyme.
Consider A22G U62G A65C A77U U132A A140G, for which the self-cleavage was 0.
To G53A A65U U87A belongs 0.03; to A30G U96C A138G, 0.48; to U1C U5C U29C G35A A42U A124U, 1.08.
Consider U14C A42G A124G, for which the self-cleavage was found to be 0.89.
With G35A U45C U87C the figure was 0.06; with U23C U39A A64C A79G U112A, 0.33; with U29C A42G A140U, 1.38.
To A42G A64U U96A belongs 0.05; to U13C U52C A59G, 0.25; to A30U A50G C76U U115C, 1.33.
For U62A A77G C131A, the self-cleavage turned out to be 0.
With U52A A57U A67G U102C the figure was 0.09; with A24G A50G U52A A117G, 0; with C37G A69U U73A G86A, 0.02.
To U15C A24U U39C U73G belongs 1.84; to U62A A67G A94G A129C, 0.
Turning to U45A A69U A107G, the self-cleavage worked out at 0.03.
Turning to U13C U29C A67U A94U C120U, the self-cleavage came to 0.09.
For the variant A22G U46C A59G A65G C128G, the self-cleavage came to 0.
With A77U A78U A117U the figure was 2.3.
To U13C A31U U73C belongs 0.27; to U15A G35A U73A U112C, 0.96.
For U20C U26C G35A A124U, the self-cleavage is 1.45.
For the variant A42U U115C U132C, the self-cleavage amounted to 1.31.
As to U20C A43G U112C U119C U143C, the self-cleavage was 0.77.
With A6G U12C A24G A77U U91C A121U the figure was 0.92.
To U13A A24G A78U belongs 0.
With U15A A69G U102A U109G the figure was 1.31.
As for U23C A69G G127A, the self-cleavage stood at 0.42.
To U5A U14C A57U belongs 0.22.
With A65G U109C U130C the figure was 0; with U5A A50G U85C U115C, 0; with U9G A78G U102A, 1.05.
To A31U A65U A79U A117U belongs 0.26; to A24G U26A A57U C76U G106C U109A, 0.
As for U9C U14C C38U, the self-cleavage came to 0.98.
To U13C U47C U104C A136G belongs 0.92; to A6G U13C A140U, 1.12; to U9G U26C U81C, 0.66.
To A69G A121U A142C belongs 1.2.
To A6U U29C U73C belongs 0.
Regarding C19U U47C A50G U108C, the self-cleavage was found to be 1.53.
With U13C A30G U45A G75U U134A the figure was 0.22.
With U26C A78U U91A the figure was 1.47; with U26G U52C A79G U85A, 0.39.
To G35A U39A C90U belongs 0.03.
U85C A124G A136U: the self-cleavage is 0.1.
Regarding U96C C101U A141U, the self-cleavage came to 0.14.
As to U23C U39A A67G, the self-cleavage is 1.41.
With U15A A107G U108C the figure was 0.92; with A43G A77G A117U U130C, 2.91; with A78C G83A U108C U143C, 1.84.
As to A22G C61G U143A, the self-cleavage is 0.09.
For A77G A78G C116U, the self-cleavage was determined as 1.06.
Consider U13A A24G A50G A77U G106U A121G, for which the self-cleavage came to 0.95.
With U81A U112A A141G the figure was 1.64; with C84U U87C A129G, 0.01; with U13A A107U C113U A129U, 0.96.
With A42G C84U A107G A129G A136U the figure was 0.15.
A6U G10A G48U: the self-cleavage came out at 0.35.
With U26A A31G U52A G86A A94G the figure was 0.48; with U13C A43G U134C, 0.61; with C3U A22G G36U U46C G83U U102C, 0.54.
With A31C U112C A136U the figure was 0.88; with C19A A31G A129U A136G, 1.11; with U9C U20C A117G, 1.29.
To G86A G88A U96C belongs 0.02.
Turning to A2G U13C U112C, the self-cleavage is 0.85.
To U12C G60A A124U A142G belongs 0.14.
As for U45C C71U A124U, the self-cleavage was 0.8.
With U20C U62A A64G A78G, the self-cleavage was determined as 0.42.
With U23A A24G U45C A107G the figure was 1.67; with A79U U104C U112A A124U A140U, 2.17; with G27U A42U U62C A77G, 0.
To G10A A42G A43G U112C A129G belongs 2.83.
To G10A A31U U62A U87A U134C belongs 0.02; to U104C A121U A140G, 2.43.
Take A31G U73A U87C A140G: the self-cleavage was found to be 0.24.
To A22G U26C A69U belongs 0.
To A43G G58A U119C U130C belongs 0.12; to U13C U14C A65G U96A U102C A142G, 0; to A22G A30G A92G C99U, 0.44.
To A31G U46G U108A A117G U130C belongs 0; to A77U U85C U108C G126A, 0.16; to G35U U52C A59U U62A A129G A140U C145U, 0.05.
Consider U46C U96A A107C U115A G135A, for which the self-cleavage stood at 0.11.
A6C U13C G36A: the self-cleavage stood at 0.78.
With U15C A64G U130C the figure was 0.65; with G7A G33A U130G, 1.16.
As to A31U A50G A141G, the self-cleavage is 0.57.
As to A43G A94G U108C, the self-cleavage worked out at 0.
With U13C U29A U46C U52A the figure was 1.53.
Regarding U14C U20C U62C U109C A140G, the self-cleavage came out at 0.
To A22G G32A G97A belongs 0.
With A57U G74U A92G U100A the figure was 0.06.
To G10A U47C U96C G127C U130A belongs 0.63; to U9C A43G U62C A136U, 0; to U29C U87C A129U, 0.41.
Consider U47C G70A A138G, for which the self-cleavage came out at 0.32.
For U62C A64U A67G U102C C103A A141G, the self-cleavage is 0.14.
Consider U14C U20C U46A, for which the self-cleavage was found to be 1.43.
With U39A A79U A129G the figure was 1.38; with U39C A50G U104A A136G, 0.3.
With A30G A59G G80A U85A the figure was 0.19; with U115A U130C U132C, 0.98.
With C37A U115C A138G A141G the figure was 1.84; with A42G U81C U102A, 1.47.
In the case of A67C G82U G106U, the self-cleavage is 0.03.
With U14C A124G C133A G135A the figure was 1.8; with G35A U52C U96A U134A, 0.05.
With A30U A77G U81C U104A A141G the figure was 1.15; with C16U A67G A138G, 0.28.
For U15A G34A A129G, the self-cleavage is 0.31.
Regarding G60A A79G A117G C123U A129U, the self-cleavage stood at 0.05.
With U14C U29A G35U U85A the figure was 0.1; with C3U G53A G60A U132A, 0.04.
For G32A U39C U52G A94U A121G, the self-cleavage turned out to be 1.59.
To U45A U62A U104A belongs 0.04; to A67G U73A A124G A136G, 0.63.
Consider A30G A50G C120U, for which the self-cleavage came to 0.95.
Turning to A50G U96C U130C, the self-cleavage is 0.
As for U9C A79G A94G, the self-cleavage is 0.23.
For the variant A2G U13C U134A, the self-cleavage was 0.54.
To A2G U26A U132C belongs 1.84.
Turning to U12G U73C A77U, the self-cleavage stood at 1.53.
To A59U U102C U112C belongs 0.35; to C71U A77U U119G, 2.47.
With U12C G83A U109A U115C A141G the figure was 0.31; with A6G U39C A136G, 0.59; with A30U A65G G72A U104C U112C A138G, 0.
With U45C U52C A57G the figure was 0; with U13C A31G G36A U46C U85A A117G A129U, 0.26.
In the case of A22U C38A A67G, the self-cleavage worked out at 0.41.
With A78G A94G U119C U143G the figure was 0.
With A77G A124G U134C the figure was 0.44; with G72A G125U A136U, 1.79; with U12C G34U A136G, 1.95.
To U12C G72A G80A A140G belongs 2.08; to U87A A92G U96C A117G, 0.
With U15C U47C U134C, the self-cleavage worked out at 1.69.
With U15C A67G U73C U104A the figure was 0.38.
As for G58U U104C A117G A121C A142G, the self-cleavage is 0.08.
As for U46C A50U G60C U108C C128U U143C, the self-cleavage was 0.01.
To U5A U15C U91C belongs 1.05; to U20C U26C G54A C56A U96A, 0.02; to A65G A69G C111A A124G, 0.
To A67G C90U U104C belongs 0.02; to U62A A69U A79G U132C A138G, 0.06; to A67U U96C U115C G122A G127A A140G, 0.01.
With A31G A136U A142G the figure was 0.6; with G7U U20C G49A A59G A94G G125A C128U, 0.1.
With U9C U73G A92G A136G, the self-cleavage was found to be 0.52.
To A30G U47A U108C G127A belongs 1.
With A6U U9A U39A the figure was 0.67; with U46G G82A U100C, 2.51.
With U73C A92U U130C the figure was 0; with U9A A42G U96C, 0.
As for A59G U62C G88A, the self-cleavage stood at 0.04.
To A124G U130C U132C A138G belongs 1.23; to A50U U52A U112C, 1.27; to A57U G60A U85C A141U, 0.
To G8C U9C C145U belongs 0.94; to U20C U112A G114A U143A, 1.13.
To A50G U62C U112C U132C A136G belongs 0.
For the variant U14C C56A U81C, the self-cleavage is 0.04.
To U15A G89A U102A belongs 0.05.
